Two proteins from US20130244332 can be followed below.

Data set [1] addresses 5-10 (E490K) ZFP/FokI fusion protein.

B1: 5-8 ZFP/FokI fusion protein (wild-type FokI cleavage half-domain) (protein)
chain: MAPKKKRKVGIHGVPAAMAERPFQCRICMRNFSRSDNLSEHIRTHTGEKPFACDICGRKFARNAHRINHTKIHTGSQKPFQCRICMRNFSRSDTLSEHIRTHTGEKPFACDICGRKFAARSTRTTHTKIHLRQKDAARGSQLVKSELEEKKSELRHKLKYVPHEYIELIEIARNSTQDRILEMKVMEFFMKVYGYRGKHLGGSRKPDGAIYTVGSPIDYGVIVDTKAYSGGYNLPIGQADEMQRYVEENQTRNKHINPNEWWKVYPSSVTEFKFLFVSGHFKGNYKAQLTRLNHITNCNGAVLSVEELLIGGEMIKAGTLTLEEVRRKFNNGEINF
B1: the “DNA cleavage (in vitro, labeled ~400 bp substrate)” value in data set [1] is “Specific”.

B2: 5-10 ZFP/FokI fusion protein (wild-type FokI cleavage half-domain) (protein)
chain: MAPKKKRKVGIHGVPAAMAERPFQCRICMRNFSRSDSLSRHIRTHTGEKPFACDICGRKFADSSNRKTHTKIHTGGGGSQKPFQCRICMRNFSRSDSLSVHIRTHTGEKPFACDICGRKFADRSNRITHTKIHLRQKDAARGSQLVKSELEEKKSELRHKLKYVPHEYIELIEIARNSTQDRILEMKVMEFFMKVYGYRGKHLGGSRKPDGAIYTVGSPIDYGVIVDTKAYSGGYNLPIGQADEMQRYVEENQTRNKHINPNEWWKVYPSSVTEFKFLFVSGHFKGNYKAQLTRLNHITNCNGAVLSVEELLIGGEMIKAGTLTLEEVRRKFNNGEINF
Turning to B2, the “DNA cleavage (in vitro, 5-8 not present)” value was “Non-specific”.
